About 5,000 (1.2%) of roughly 410,000 compounds were called active. The shares of active, inactive and inconclusive entries below differ from those in the screen. Calls come from the whole dose curve; as a rule, active = well fitted inhibition curve with a large enough effect; inconclusive = small, poorly fitted or top-dose-only effect; inactive = no such curve, though single readings can be large or run the other way. Potencies beside an inconclusive call are fits to weak or partial responses and may not hold up.
test: qHTS for Inhibitors of TGF-b; conditions: HepG2 CAGA-GFP TGF-b/SMAD3 reporter, GFP fluorescence, 18 h, TGF-beta stimulated, 500 pg/mL final; series mostly up to 46.1 µM; activity, negative = inhibition: at the top concentration; note: nearly all actives have a fitted effect of over 65% in size
Procedure, shortened: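 Per well, imaged GFP fluorescence of HEPG2 CAGA-GFP cells gives the signal; cells get compound, then TGF-beta (500 pg/mL final), 18 h at 37 degrees C; %Activity versus -TGF-beta and +DMSO controls.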
% is set by controls: 0 for no effect and ±100 for the full control effect; potency is the fitted concentration of half-maximal effect; tags give direction and shape of the fitted curve.

Row | Structure (SMILES) | activity, negative = inhibition | Potency
1 | CCOc1nsc(OCC)n1 | inactive: -12.4% | 
2 | CC(C)Oc1ccc(C(CCN)C2CCCCC2)cc1 (configuration not stated) |  | inconclusive: 22.4 µM [inhibitor, single point]
3 | COc1ccc(C)cc1-n1c(SCC(=O)NCC2CCCO2)nc2c([nH]c3ccccc32)c1=O (configuration not stated) |  | inconclusive: 3.55 µM [inhibitor, partial curve]
4 | Oc1c(N=Nc2ccccn2)ccc2ccccc12 |  | active: 6.31 µM
5 | CCCCN1CC(c2nc3ccccc3n2CCCCOc2ccc(C)c(C)c2)CC1=O (configuration not stated) |  | active: 11.2 µM
6 | COc1ccc(OC)c(NS(=O)(=O)c2ccc3[nH]c4c(c3c2)CCCCC4)c1 |  | inconclusive: 20 µM [inhibitor, single point]
7 | CNC(C)C#Cc1ccc2sc3cccc(OC)c3c(=O)c2c1 (configuration not stated) |  | inconclusive: 35.5 µM [inhibitor, single point]
8 | Cc1c(NC(=O)c2ccc([N+](=O)[O-])o2)cccc1-c1nc2ncccc2o1 |  | inconclusive: 5.62 µM [inhibitor, partial curve, poor fit]
9 | O=C(Nc1nc(=S)ss1)c1ccc(Cl)cc1Cl |  | inconclusive: 3.55 µM [inhibitor, single point]
10 | O=C(NC(NC(=S)Nc1ccc(Cl)cc1Cl)C(Cl)(Cl)Cl)c1cccc([N+](=O)[O-])c1 (configuration not stated) |  | inconclusive: 6.31 µM [inhibitor, single point]
11 | CC(C)Cc1nc2oc3c(Cl)ncnc3c2c2c1CCCC2 | inactive: 16.8% | 
12 | Oc1ccc(Nc2nc3ccccc3nc2Nc2ccc(O)cc2)cc1 |  | active: 11.2 µM
13 | C[C@H](CO)N1C[C@H](C)[C@@H](CN(C)S(=O)(=O)c2ccccc2)Oc2c(NC(=O)Nc3ccc4c(c3)OCO4)cccc2C1=O | inactive: -7.11% | 
14 | CCCCn1c(N)c(N(CCOC)C(=O)COC(=O)COc2cc(C)c(Cl)cc2C(C)C)c(=O)[nH]c1=O |  | inconclusive: 11.2 µM [inhibitor, partial curve]
15 | CCOC(=O)C1CCN(c2cc(C)nc3cc(-c4cccc(F)c4)nn23)CC1 |  | inconclusive: 0.501 µM [inhibitor, full curve, poor fit]
16 | Cc1ccc2oc(=O)c(/C=C(\O)c3ccco3)nc2c1 |  | inconclusive: 35.5 µM [inhibitor, partial curve, poor fit]
17 | CN(c1ccccc1)S(=O)(=O)c1ccc(NC(=O)c2ccco2)cc1 | inactive: 16.1% | 
18 | N#C/C(=C(\O)c1cc(Cl)sc1Cl)c1nc2ccccc2[nH]1 |  | inconclusive: 4.47 µM [inhibitor, partial curve]
19 | Clc1ncccc1OCc1ccccc1 | inactive: 4.19% | 
20 | O=C(CSc1nncs1)NCc1ccc(F)cc1 | inactive: 0.453% | 
21 | Cc1ccc(Cl)cc1N1CCN(C(=O)c2cc3c(=O)[nH]c4ccccc4c3n2C)CC1 |  | inconclusive: 4.47 µM [inhibitor, full curve]

Row | Structure (SMILES) | activity, negative = inhibition | Potency
22 | CCOc1ccc(CN2C(=O)c3ccccc3C2C(=O)NCC2CCCO2)cc1 (configuration not stated) | inactive: -2.6% | 
23 | Cc1ccc(CSC2=NS(=O)(=O)c3ccccc32)cc1 |  | inconclusive: 10 µM [inhibitor, partial curve]
24 | COc1ccc(C2=NOC(C(=O)Nc3cccnc3)C2)cc1 (configuration not stated) | inactive: 4.55% | 
25 | O=c1[nH][nH]c(-c2ccccc2O)c1C(C[N+](=O)[O-])c1ccc(Br)cc1 (configuration not stated) |  | inconclusive: 35.5 µM [inhibitor, single point]
26 | CCn1c2ccccc2c2cc(CN3CCN(Cc4cc(OC)ccc4O)CC3)ccc21 |  | inconclusive: 35.5 µM [inhibitor, single point]
27 | Cc1ccc(S(=O)(=O)N2CCC(=O)N(C(COCc3cccc(C(F)(F)F)c3)C(C)C)CC2)cc1 (configuration not stated) |  | inconclusive: 35.5 µM [inhibitor, single point]
28 | CC(NC(=O)Nc1ccc(Cl)c(Cl)c1)C(c1ccccc1)N1CCOCC1 (configuration not stated) |  | inconclusive: 35.5 µM [inhibitor, single point]
29 | O=C(c1ccc(CSc2nc3ccncc3n2Cc2cccc(F)c2)cc1)N1CCCCC1 |  | inconclusive: 22.4 µM [inhibitor, partial curve, poor fit]
30 | Cc1sc(NC(=O)Cn2[nH]c(=O)c3ccccc3c2=O)nc1-c1ccccc1 |  | inconclusive: 35.5 µM [inhibitor, single point]
31 | COc1cccc(C2CC(C(F)(F)F)n3nc(C(=O)Nc4c(C)n(C)n(-c5ccccc5)c4=O)cc3N2)c1 (configuration not stated) |  | inconclusive: 35.5 µM [inhibitor, single point]
32 | N#CC1=C(N)NC(=S)C(C(N)=O)C1c1ccc(Cl)cc1Cl (configuration not stated) |  | inconclusive: 2.82 µM [inhibitor, full curve, poor fit]
33 | CC1CC(C)CN(S(=O)(=O)c2ccc(NC(=O)C3CC(=O)N(Cc4ccccc4)C3)cc2)C1 (configuration not stated) |  | inconclusive: 25.1 µM [inhibitor, single point]
34 | O=C(NCC1CCCN1S(=O)(=O)c1ccccc1)c1cccc(Cl)c1 (configuration not stated) | inactive: 2.12% | 
35 | O=c1c2ccccc2sn1-c1ccc(Cl)cc1Cl |  | inconclusive: 17.8 µM [inhibitor, single point]
36 | O=c1[nH]c(=O)n(Cc2ccco2)c2c1C(C(F)(F)F)(C(F)(F)F)N=C(c1ccc(F)cc1)N2 |  | inconclusive: 2.51 µM [inhibitor, full curve, poor fit]
37 | CC1(C)O[C@H]2[C@@H](O1)[C@@H](C(=O)Nc1ccc(F)c(F)c1)O[C@@H]1OC(C)(C)O[C@@H]12 | inactive: -2.88% | 
38 | Cc1ccc(CN2CCN(CC(=O)NCc3ccc(Cl)cc3)C2=O)cc1 |  | inconclusive: 8.91 µM [inhibitor, partial curve]
39 | CCN(CCNC(=O)Nc1ccc(Cl)cc1)c1ccccc1 |  | inconclusive: 22.4 µM [inhibitor, single point]
40 | CCOC(=O)c1c(N)sc(C(C)=O)c1C |  | inconclusive: 3.16 µM [inhibitor, single point]
41 | COc1ccc(N=C2NN=C(c3c(C)[nH]c4ccccc34)CS2)cc1 |  | inconclusive: 35.5 µM [inhibitor, single point]
42 | CCN(C1CCCCC1)S(=O)(=O)c1ccc(S(=O)(=O)NCc2ccncc2)cc1 |  | inconclusive: 3.16 µM [inhibitor, full curve, poor fit]
